Shown are siRNA guide strands that differ only in the seed, positions 2 to 7.
Tests used:
H4 = assay: cell viability relative to siNT1 (ATP content); H4 human neuroglioma and GL261 mouse glioma; higher = less toxic; conditions: siRNA concentration 10 nM; 96 h; human
Experimental: (§1)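 Arrayed screen of all 4096 6mer seeds. Each seed sits at guide-strand positions 2-7 of a neutral 19mer siRNA backbone (siNT1-based, passenger strand 2'-O-methyl modified at positions 1-2 to block RISC loading, 3' DNA overhangs). The guide strand is built here as U + seed + ACAUGUAAACCA. Cells were reverse transfected in triplicate in 384-well plates (H4 at 10 nM, GL261 at 25 nM) with Lipofectamine RNAiMAX. Viability was read as ATP content (CellTiter-Glo) 96 h after transfection and normalised to siNT1 (%).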

GL261 = assay: as above; conditions: siRNA concentration 25 nM; 96 h; mouse
Experimental: as §1
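Note: cells reverse transfected with siRNA duplexes via lipid reagent, ATP read by luminescence, triplicate wells, values scaled to mean viability with non-targeting control siNT1.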

Row | Sequence | cell viability (H4) [%] | cell viability (GL261) [%]
1 | UCAUAAUACAUGUAAACCA | 85 | 41.3
2 | UCAUACAACAUGUAAACCA | 114 | 36.5
3 | UCAUACCACAUGUAAACCA | 63.2 | 23.9
4 | UCAUACGACAUGUAAACCA | 83.4 | 30.6
5 | UCAUACUACAUGUAAACCA | 79.4 | 23.2
6 | UCAUAGAACAUGUAAACCA | 98.2 | 41
7 | UCAUAGCACAUGUAAACCA | 21.2 | 13.5
8 | UCAUAGGACAUGUAAACCA | 71.1 | 15.2
9 | UCAUAGUACAUGUAAACCA | 69 | 38.8
10 | UCAUAUAACAUGUAAACCA | 99.9 | 36.6
11 | UCAUAUCACAUGUAAACCA | 113 | 37.5
12 | UCAUAUGACAUGUAAACCA | 82.6 | 51.3
13 | UCAUAUUACAUGUAAACCA | 80.4 | 23.3
14 | UCAUCAAACAUGUAAACCA | 91.7 | 54.1
15 | UCAUCACACAUGUAAACCA | 86.8 | 50.5
16 | UCAUCAGACAUGUAAACCA | 83.9 | 41.5
17 | UCAUCAUACAUGUAAACCA | 88.1 | 50.2
18 | UCAUCCAACAUGUAAACCA | 96.4 | 39.1
19 | UCAUCCCACAUGUAAACCA | 56.4 | 7.19
20 | UCAUCCGACAUGUAAACCA | 73.4 | 40.1
21 | UCAUCCUACAUGUAAACCA | 72.4 | 22
22 | UCAUCGAACAUGUAAACCA | 87.9 | 48.2

Row | Sequence | cell viability (H4) [%] | cell viability (GL261) [%]
23 | UCAUCGCACAUGUAAACCA | 89.4 | 18.4
24 | UCAUCGGACAUGUAAACCA | 56.3 | 28.9
25 | UCAUCGUACAUGUAAACCA | 111 | 11.3
26 | UCAUCUAACAUGUAAACCA | 118 | 43.2
27 | UCAUCUCACAUGUAAACCA | 70.6 | 17.8
28 | UCAUCUGACAUGUAAACCA | 79.4 | 54.6
29 | UCAUCUUACAUGUAAACCA | 97.9 | 35.6
30 | UCAUGAAACAUGUAAACCA | 117 | 46.2
31 | UCAUGACACAUGUAAACCA | 61.4 | 9.34
32 | UCAUGAGACAUGUAAACCA | 96.1 | 79.8
33 | UCAUGAUACAUGUAAACCA | 75.6 | 31.9
34 | UCAUGCAACAUGUAAACCA | 75.9 | 75
35 | UCAUGCCACAUGUAAACCA | 21.2 | 12.4
36 | UCAUGCGACAUGUAAACCA | 78.1 | 29.2
37 | UCAUGCUACAUGUAAACCA | 10.8 | 14.4
38 | UCAUGGAACAUGUAAACCA | 57.4 | 54.2
39 | UCAUGGCACAUGUAAACCA | 37.1 | 8.83
40 | UCAUGGGACAUGUAAACCA | 56.4 | 28.5
41 | UCAUGGUACAUGUAAACCA | 58 | 23.2
42 | UCAUGUAACAUGUAAACCA | 119 | 51.8
43 | UCAUGUCACAUGUAAACCA | 87.9 | 18.8
44 | UCAUGUGACAUGUAAACCA | 107 | 66.9

Row | Sequence | cell viability (H4) [%] | cell viability (GL261) [%]
45 | UCAUGUUACAUGUAAACCA | 59.5 | 54.5
46 | UCAUUAAACAUGUAAACCA | 96 | 39.1
47 | UCAUUACACAUGUAAACCA | 51.4 | 25.2
48 | UCAUUAGACAUGUAAACCA | 70.3 | 36.3
49 | UCAUUAUACAUGUAAACCA | 78.1 | 37.5
50 | UCAUUCAACAUGUAAACCA | 70.5 | 37.2
51 | UCAUUCCACAUGUAAACCA | 53.2 | 26
52 | UCAUUCGACAUGUAAACCA | 82.8 | 32.6
53 | UCAUUCUACAUGUAAACCA | 80.9 | 26.8
54 | UCAUUGAACAUGUAAACCA | 70.3 | 37.6
55 | UCAUUGCACAUGUAAACCA | 51.3 | 18.9
56 | UCAUUGGACAUGUAAACCA | 49.3 | 32.2
57 | UCAUUGUACAUGUAAACCA | 73.9 | 16.5
58 | UCAUUUAACAUGUAAACCA | 113 | 42.1
59 | UCAUUUCACAUGUAAACCA | 75.1 | 41.5
60 | UCAUUUGACAUGUAAACCA | 73.6 | 37.7
61 | UCAUUUUACAUGUAAACCA | 85.4 | 27.3
62 | UCCAAAAACAUGUAAACCA | 81.7 | 55.9
63 | UCCAAACACAUGUAAACCA | 65.7 | 47.4
64 | UCCAAAGACAUGUAAACCA | 86.7 | 58.1
65 | UCCAAAUACAUGUAAACCA | 92.2 | 54.9
66 | UCCAACAACAUGUAAACCA | 67.2 | 68.3

Row | Sequence | cell viability (H4) [%] | cell viability (GL261) [%]
67 | UCCAACCACAUGUAAACCA | 5.77 | 19.5
68 | UCCAACGACAUGUAAACCA | 93.9 | 69.2
69 | UCCAACUACAUGUAAACCA | 24.3 | 31
70 | UCCAAGAACAUGUAAACCA | 54.8 | 52
71 | UCCAAGCACAUGUAAACCA | 14.2 | 6.06
72 | UCCAAGGACAUGUAAACCA | 35 | 39.1
73 | UCCAAGUACAUGUAAACCA | 52.9 | 31.2
74 | UCCAAUAACAUGUAAACCA | 95.3 | 47
75 | UCCAAUCACAUGUAAACCA | 49 | 30.6
76 | UCCAAUGACAUGUAAACCA | 61.9 | 51.7
77 | UCCAAUUACAUGUAAACCA | 94.1 | 69.6
78 | UCCACAAACAUGUAAACCA | 66.3 | 34.3
79 | UCCACACACAUGUAAACCA | 80.8 | 32.7
80 | UCCACAGACAUGUAAACCA | 93.7 | 26.2
81 | UCCACAUACAUGUAAACCA | 93 | 36.6
82 | UCCACCAACAUGUAAACCA | 96.2 | 25.9
83 | UCCACCCACAUGUAAACCA | 59.4 | 17
84 | UCCACCGACAUGUAAACCA | 65.7 | 36.2
85 | UCCACCUACAUGUAAACCA | 47.6 | 29.1
86 | UCCACGAACAUGUAAACCA | 95.2 | 43.5

Reference: the supplement of paper PMC8948288
